Test results reported in the antibiotic and cytotoxicity screens of Wong et al. (2023).
The list shows a part of the results.

Tested on: S. aureus RN4220
Experiment: growth inhibition call (relative growth <= 0.2)
Settings: 50 µM

Growth inhibition call, inactive:
COc1ccc2c3c(n(c2c1)C)[C@@H](CO)N(CC1CCOCC1)C[C@]13CCN(CC1)C(=O)Cc1cccnc1, C[C@@H]1CCCCO[C@@H](CN(C)S(=O)(=O)c2ccc(F)cc2)[C@H](C)CN([C@@H](C)CO)C(=O)c2cc(NC(=O)Nc3ccc4c(c3)OCO4)ccc2O1, C[C@H](CO)N1C[C@H](C)[C@H](CN(C)C(=O)Nc2ccc3c(c2)OCO3)Oc2ccc(NC(=O)Cn3cnnn3)cc2C1=O
